Results published in article PMC12136788.
Residue numbers refer to the chain shown, from its start. Some of the results follow.

B1: chr14:103803487:103803488:+_ENSG00000100664_ENST00000558506|hu_mus|hu_hu_hu_mus_True|88_88 (ssRNA)
RNA: GGGAGUUCUACAGUCCGACGAUCGAGUUUAUGAUGUGUGUCAAGCAUGCCUCGAUACCCACAGGCUUUACAAGAAUUACCUAUUGUUUGCUUCUUUGGAUUGACAUGCAGAUCUGUUUCAGGAUUCUCACACUCAGGACAGAGCAACAGAGGAUUGAGCAUCA
B2: chr2:163839828:163839829:+_ENSMUSG00000018326_ENSMUST00000018470|mus_hu|FALSE|FALSE (ssRNA)
RNA: GGGAGUUCUACAGUCCGACGAUCGGAGUUCGACACAGUGGUUUGUUUGUUGUCUCCAGAUGCCACUUCAGAAAGAUACCUAAAAUAAUCUCCUUUCAUUUUCAAGUAGAACACCUUACUUUCUGGUUGUGUAGCAUUGGGAAUCAACAGAGGAUUGAGCAUCA
B3: chr1:46159212:46159213:+_ENSG00000159596_ENST00000372025|hu_mus|hu_hu_hu_mus_True|48_58 (ssRNA)
RNA: GGGAGUUCUACAGUCCGACGAUCUCUGAUCCCUCCCAAGAAAGCUAGGAAACCGGCUCCAUAAGCCAUCUGAGUGAAAGCUAAUAUGGGAAUAUAAGACUUUGUUAUUACCAUGAGAAGUGGGGGAGCAGUAAAGGGGAUUAACAACAGAGGAUUGAGCAUCA
B4: chr3:9412954:9412955:+_ENSG00000134077_ENST00000452837|hu_mus|hu_hu_hu_mus_False|68_78 (ssRNA)
RNA: GGGAGUUCUACAGUCCGACGAUCGGUUGAUAUCUCUUCUUUGAUGGCUGGAUUUUCAUAAUAAUCUAAGAUAUGAGAAUCUGAAGUGCUGCUGGCAUGCUUUUUCUUACCAUCUUUCUCAUCUGCUUUGUCUCCUUGUCCACACAACAGAGGAUUGAGCAUCA
B5: chr1:39494564:39494565:+_ENSG00000168653_ENST00000372967|hu_hu|hu_hu_hu_mus_True|1_8 (ssRNA)
RNA: GGGAGUUCUACAGUCCGACGAUCAUGCAUUCGCCUCAUCGUUUUGUACCGAAGCAAGCACUCUUCGAAGUCAUCGAACUCUAUCUUGCACUCCUUUUUCGCCCGGGUCCCACCGAUCCCGUGUGCACAUUCUAUCCAUUCUUUCAACAGAGGAUUGAGCAUCA
B6: chr11:100452861:100452862:-_ENSMUSG00000014195_ENSMUST00000014339|mus_hu|motif|central (ssRNA)
RNA: GGGAGUUCUACAGUCCGACGAUCCCAUUCGUAGAAUGUCACUAGCCACAGACUGUGCUUCUGGAUAACGACCCAGCAUUGCGGAACAUUCUGCCUUGAGGAUUUUGAAGCGAUGGCAGGCAGGGGCAAAUUCUAGGGCACGGUCAACAGAGGAUUGAGCAUCA
B7: chr17:34054454:34054455:+_ENSMUSG00000051390_ENSMUST00000053429|mus_mus|FALSE|FALSE (ssRNA)
RNA: GGGAGUUCUACAGUCCGACGAUCAAAUGCAUCCUGGGAGGUAGAGGAGAAAUCAGUCGACUCCCGGGGGCUGAAGUAGUUGCUACUGCUGGGAGACUGAUUCUCACUGGCCCUGCUGGAGGUAUGGGAACGGACAGAGCCUACCAACAGAGGAUUGAGCAUCA
B8: chr3:176740097:176740098:-_ENSG00000177565_ENST00000430069|hu_mus|hu_hu_hu_mus_True|68_68 (ssRNA)
RNA: GGGAGUUCUACAGUCCGACGAUCUGUUUUGUAUACCACAAAAGGAGGCACUUUCAGUAUCUGCAAAAGGUAUUUAAUCCUAAAACAUACUCACCUAGAGGAUAACUCAGGAAAACAAUCUGUUACACUCUAAGACCUACUCCACAACAGAGGAUUGAGCAUCA
B9: 52416732_52418160_1049_CDS_ENSG00000069966_ENST00000358784|human|control|control (ssRNA)
RNA: GGGAGUUCUACAGUCCGACGAUCGCUAACGCGGUUUUCAUGUCCAAACAGGAUGGAGACCCGGGACCCUUUGAGAACAUCCCAGACGUUGAUAGUGUAAUCAUUGUAUCCAGCAAACAGCAGGCGACCACUGAGGGAGAAGUCCAACAGAGGAUUGAGCAUCA
B10: 18965736_18965856_2424_3pUTR_ENSG00000165997_ENST00000377275|human|control|control (ssRNA)
RNA: GGGAGUUCUACAGUCCGACGAUCAAUCACUAAGAAAACGGCUUAAAACAAAGUUAAACAACUACUUUCCAAAGCCCAGAAAGCUUUCCUUUGGCCACUGUUCAGUUCAAGGGUGUGCUCCAACUAAAGAUAAAUCAGAAAAAUCAACAGAGGAUUGAGCAUCA
B11: 107600205_107600935_2585_CDS_ENSG00000091136_ENST00000393561|human|control|control (ssRNA)
RNA: GGGAGUUCUACAGUCCGACGAUCGGGCCGGCACUGGCACUGGCCUCCGUUGGGAUCACACACGGAACUUAACGAACCCUGAGGGUCGCAUUCACAAGCCAGGCCUGUCUGGUGUAACAGGGCAGAAAUGCUAAAGAUGAUGUUCAACAGAGGAUUGAGCAUCA
B12: chr8:95500983:95500984:-_ENSG00000164944_ENST00000437199|hu_hu|hu_hu_hu_mus_True|48_88 (ssRNA)
RNA: GGGAGUUCUACAGUCCGACGAUCAGAACACAUCUAUCGAGUAAAGGGAGCGUACAUACGGCCUCUACCACUGCCUCCACUAACAAAACUUUCCUCUGAGCCUCCACUGCCGCUAUUUGUACUAGCCCAGGACGGUCCCAGGCCCAACAGAGGAUUGAGCAUCA
B13: chr10:116622694:116622695:+_ENSG00000151553_ENST00000369248|hu_hu|motif|central (ssRNA)
RNA: GGGAGUUCUACAGUCCGACGAUCAAUAAACCAGAAAAGCUAACACAACAAAAUGAGCAGAUAGGUGUAAAACAAGCCUCGGUGCACAUGCCACACAAUGCGUAUAUGCAAACAUGCUACAUAAAAUAACUUCCUAGAGGGGGUCAACAGAGGAUUGAGCAUCA
B14: chr12:493273:493274:-_ENSG00000073614_ENST00000399788|hu_hu|motif|central (ssRNA)
RNA: GGGAGUUCUACAGUCCGACGAUCUUUUCUCUCUACCACAGGGAUCUUCAGAGUAGAUCCUUGAAGUUCCCAAAAUUUUGCGGGUUGAUCCAAGAAAUCCAAUCUCACUCUGGUCAUUGCCUCAAGUUCAUUCAGGCGCUGGACCAACAGAGGAUUGAGCAUCA
B15: chr6:41757443:41757444:+_ENSG00000214736_ENST00000398881|hu_mus|hu_hu_hu_mus_False|88_88 (ssRNA)
RNA: GGGAGUUCUACAGUCCGACGAUCGAACCGUGCAGAGGCAACAUCUCGGAAUUCUGCGGGGGAUGGGGGGGCAGUGGGGGGGGGUUCAGGCAAGGAGAGGGAGUCAACUUCAGCUGCCACUCAGGUAGGAUCUUGUGGUCACAGCAACAGAGGAUUGAGCAUCA
B16: chr7:75932113:75932114:+_ENSG00000106211_ENST00000248553|hu_hu|hu_hu_hu_mus_False|1_38 (ssRNA)
RNA: GGGAGUUCUACAGUCCGACGAUCCUGCGACCACUCAUCGGGCAACCGGGGCACCCCGAAAGCUUGAUCGAAGAGGCGGCUGUGUGCAGGGUACCAGCGGAAGGGGUGUUCCCAGCUCGGGCUCCGCAGCAGCGAGAGGACGCGCAACAGAGGAUUGAGCAUCA
B17: chr7:140404665:140404666:+_ENSG00000090266_ENST00000247866|hu_hu|hu_hu_hu_mus_False|8_28 (ssRNA)
RNA: GGGAGUUCUACAGUCCGACGAUCUGCUCCUACUCGUCCAGAGAGUUUACAGUGUCAGUCCUCGUCAUCAGGAGGGAUUCCCAGUUCUUCAUCUGUCCACUGUGAAGGAUCAGGAUAUGAAAAGUGACCCAGCACCUCAUCCGACAACAGAGGAUUGAGCAUCA
B18: 22795644_22795764_1879_ncRNA_ENSMUSG00000026784_ENSMUST00000139472|mouse|control|control (ssRNA)
RNA: GGGAGUUCUACAGUCCGACGAUCUAUUUGUGUAAUGGCUUUACAUGUGGGCAUUAACAGUGUAAACAAUACCACAUAUAACCAUCAGGAUACCUCGAUUAGAAUUUAUAGGACUAUAAUGACACUGGUUUAAUUACAUUUAAACAACAGAGGAUUGAGCAUCA
B19: chr22:19452774:19452775:-_ENSG00000070010_ENST00000399523|hu_hu|hu_hu_hu_mus_False|18_18 (ssRNA)
RNA: GGGAGUUCUACAGUCCGACGAUCCUUCUCAUUGUAGUUGAUAGCAAUCACAUCUCCAGUCGUCAGACAGGCGAAGUUUCUCAAUGCAUUUUCUAAUACCGCUUUAGGGUUGGUAAUGUCCAGGAAGUCUGGGCUCUGAGGCUGCAACAGAGGAUUGAGCAUCA
B20: chr10:93459826:93459827:-_ENSMUSG00000036099_ENSMUST00000119818|mus_mus|FALSE|FALSE (ssRNA)
RNA: GGGAGUUCUACAGUCCGACGAUCUCCCCACACCAGCCAGGAGGACACAAUCCAGCACGUGGGAAACAUGAUGAGCAAACUAAUGAAGGCAAACAGCAGCGAGACAUCCCAAGUGUUCGGGGUUGCCAGGGAGCAGAGCGUUGGCAACAGAGGAUUGAGCAUCA
B21: chr7:140404665:140404666:+_ENSG00000090266_ENST00000247866|hu_hu|hu_hu_hu_mus_False|38_58 (ssRNA)
RNA: B17 RNA with U78A, C81U, G83A, U102G, A111U, C135A, U136G
B22: 179984994_179989092_2541_3pUTR_ENSG00000135837_ENST00000367607|human|control|control (ssRNA)
RNA: GGGAGUUCUACAGUCCGACGAUCAAGUCUUUUCUUGCAAGAGGCUGUGGAGGUUCUGAGAGAGACAUGUCACUACUGGAAGAUGCACUUGGGGGACGUUCCUGUACUUUGUUUUCUUUGUCAGAUUCUCCAGAUGGCUGAUACCAACAGAGGAUUGAGCAUCA

biological target: T1, UNK ZnF1-3 (human, UniProt Q9C0B0 31-174); test: nsRBNS (natural sequence RNA bind-n-seq); RBNS binding buffer (assumed for nsRBNS): 25 mM Tris pH 7.5, 150 mM KCl, 3 mM MgCl2, 0.01% Triton X-100, 500 ug/ml BSA, 20 U/ml SUPERase-In, 4 C; UNK is unkempt and MSI1 is Musashi-1; names of the RNAs are library labels; protein concentration not given here; high values mean tight binding
T1 sequence: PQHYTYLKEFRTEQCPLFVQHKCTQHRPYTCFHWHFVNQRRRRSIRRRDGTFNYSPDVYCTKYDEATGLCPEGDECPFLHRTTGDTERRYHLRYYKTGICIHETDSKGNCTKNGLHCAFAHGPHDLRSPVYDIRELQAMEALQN

Binder | binding signal
B1 | 1.19 enrichment R
B2 | 0.43 enrichment R
B3 | 1.36 enrichment R
B4 | 0.514 enrichment R
B5 | 0.756 enrichment R
B6 | 1.02 enrichment R
B7 | 1.45 enrichment R
B8 | 0.954 enrichment R
B9 | 1.27 enrichment R
B10 | 1.64 enrichment R
B11 | 0.859 enrichment R
B12 | 1.71 enrichment R
B13 | 1.38 enrichment R
B14 | 1.18 enrichment R
B15 | 0.68 enrichment R
B16 | 1.01 enrichment R
B17 | 1.33 enrichment R
B18 | 0.976 enrichment R
B19 | 0.672 enrichment R
B20 | 2.18 enrichment R
B21 | 1.48 enrichment R
B22 | 0.876 enrichment R
